“Also recorded” adds a separate entry of the source. Not every detail of the peptide structures is certain; ends, links or a residue may be inferred. Where no end group is shown, it is not given here.
Tests used:
PMN [1] = assay: PMN chemotaxis to 10 nM human recombinant C5a (multiwell chemotaxis chambers); assay type: cell-based; settings: for inhibition of chemotaxis to C5a, modified pentapeptides: PMN incubated with peptide 15 minutes prior to assay, compared among peptides; for inhibition of PMN chemotaxis to C5a: cells exposed to peptide and agonist at the same time
PMN [2] = assay: fMLP-stimulated PMN superoxide production (ferricytochrome C reduction); assay type: cell-based, human; settings: for fMLP-induced superoxide production, modified pentapeptides: PMN incubated with peptide 15 minutes prior to assay, compared among peptides
PMN lysates = assay: Phosphorylation of synthetic peptides by PMN lysates with [γ-32P]ATP; assay type: biochemical, human; settings: for 32P incorporation (autoradiogram): 40 μg peptide, one hour room temperature
PMN [3] = assay: PMN chemotaxis to 100 nM fMLP (multiwell chemotaxis chambers); assay type: cell-based, human; settings: cells concomitantly exposed to peptide and agonist
U937 lysates = assay: Phosphorylation of synthetic peptides by U937 (irrelevant) cell lysates with [γ-32P]ATP; assay type: biochemical
[4] = 5 μM NIP pre-exposure at room temperature
[5] = 5 μM NIP, 60 minutes pre-exposure

Substance: GAYFF [Gly-Ala-Tyr-Phe-Phe]
- inhibition of chemotaxis to C5a, modified pentapeptides (PMN [1]): more significantly inhibit

Substance: GAAFF [Gly-Ala-Ala-Phe-Phe]
- inhibition of chemotaxis to C5a, modified pentapeptides (PMN [1]): to a lesser extent
- fMLP-induced superoxide production, modified pentapeptides (PMN [2]): markedly attenuated; also recorded: more significantly than any other peptides

Substance: GSYFF [GSYFF, Gly-Ser-Tyr-Phe-Phe]
- potency in inhibiting PMN chemotaxis to C5a relative to NIP (PMN [1]; agonist and peptide exposed to cells at the same time): approximately the same potency as NIP
- inhibition of PMN chemotaxis to C5a (PMN [1]): significantly inhibited
- inhibition of fMLP-stimulated PMN superoxide production (preliminary data) (PMN [2]): inhibit
- 32P incorporation (autoradiogram) (PMN lysates): not readily apparent
- 32P incorporation (RPHPLC fractions, scintillation counting) (PMN lysates; RPHPLC): a peak of phosphorylation, absent in the control injection, co-eluted with GSYFF

Substance: EGSYFFGDNA [NIP-Arg, Glu-Gly-Ser-Tyr-Phe-Phe-Gly-Asp-Asn-Ala]
- inhibition of PMN chemotaxis to C5a (PMN [1]): significantly inhibited
- inhibition of fMLP-stimulated PMN superoxide production (preliminary data) (PMN [2]): inhibit
- 32P incorporation (autoradiogram) (PMN lysates): to a lesser degrees

Substance: GSAFF [Gly-Ser-Ala-Phe-Phe]
- fMLP-induced superoxide production, modified pentapeptides (PMN [2]): markedly attenuated; also recorded: more significantly than any other peptides

Substance: REGSYFFGDNA [NIP, Arg-Glu-Gly-Ser-Tyr-Phe-Phe-Gly-Asp-Asn-Ala]
- exposure time at which inhibition of C5a induced chemotaxis was noted (PMN [1]; [4]): ≤ 5 min
- inhibition of chemotaxis at 60 minutes exposure (PMN [1]; [5]): no longer apparent
- inhibition of PMN chemotaxis to C5a (PMN [1]): inhibited
- inhibition of chemotaxis to C5a by number of cells migrating 10 μm increments (PMN [1]; varying concentrations of peptide): dose-dependent inhibition
- inhibition of PMN chemotaxis to fMLP (PMN [3]): inhibited
- superoxide production vs control PMN (PMN [2]; 1 μM peptide for 15 minutes prior to addition of fMLP): significantly less superoxide than control PMN
- exposure time at which inhibition of fMLP-induced superoxide release was noted (PMN [2]; [4]): ≤ 5 min
- inhibition of superoxide at 60 minutes exposure (PMN [2]; [5]): no longer apparent
- cytochrome C reduction, nonspecific effect check (PMN [2]; peptide added after cells were stimulated with fMLP for 60 minutes): did not affect cytochrome C reduction
- 32P incorporation (autoradiogram) (PMN lysates): intense incorporation of ^32 P
- 32P incorporation with U937 lysates (U937 lysates): but not U937 lysates
